Measured values taken from the supplement of paper PMC4967469.
Lines with a small IC50 respond at low doses; fits outside the tested doses are given as limits. AUC sums up the same curve from the lowest dose to the 256-fold higher top dose; the more sensitive the line, the further below 1. For part of these data: Where the top dose is marked as inferred, it is not printed in the source and was worked back from the curve model. For part of these data: Drugs with an entry number were screened twice under separate entries, and the two screens often disagree.

Columns and labels:
Assay in all cases: Viability of human cancer cell lines after 72 h of drug (GDSC screen)
Gemcitabine = compound: Nc1ccn([C@@H]2O[C@H](CO)[C@@H](O)C2(F)F)c(=O)n1 [Gemcitabine]; conditions: top dose 1.024 µM
Method: (§1)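 Human cancer cell lines in 384-well plates, medium with 10% serum, drug for 72 h over a 256-fold dose range (nine 2-fold or five 4-fold steps up to the top dose). Adherent lines were fixed and stained with the nucleic acid dye Syto60, suspension lines read with resazurin; signal relative to control wells, capped at 0 and 100%. One two-parameter sigmoid per drug and line, fitted in a mixed model over all curves with the slope shared within a line.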

KIN001-270 = compound: Cc1ccc(Nc2cc(-c3cccc(N4C(=O)c5ccccc5C4=O)c3)ncn2)cc1NS(C)(=O)=O [KIN001-270]; conditions: top dose 20 µM; top dose inferred
Method: as §1

MP470 = compound: S=C(NCc1ccc2c(c1)OCO2)N1CCN(c2ncnc3c2oc2ccccc23)CC1 [MP470]; conditions: top dose 20 µM; top dose inferred
Method: as §1

AUY922 = compound: CCNC(=O)c1noc(-c2cc(C(C)C)c(O)cc2O)c1-c1ccc(CN2CCOCC2)cc1 [AUY922]; conditions: top dose 0.256 µM; top dose inferred
Method: as §1

TW-37 = compound: CC(C)c1ccccc1Cc1cc(C(=O)Nc2ccc(S(=O)(=O)c3ccccc3C(C)(C)C)cc2)c(O)c(O)c1O [TW-37]; conditions: top dose 5 µM
Method: as §1

LFM-A13 = compound: C/C(O)=C(\C#N)C(=O)Nc1cc(Br)ccc1Br [LFM-A13]; conditions: top dose 16 µM; top dose inferred
Method: as §1

Nilotinib = compound: Cc1cn(-c2cc(NC(=O)c3ccc(C)c(Nc4nccc(-c5cccnc5)n4)c3)cc(C(F)(F)F)c2)cn1 [Nilotinib]; conditions: top dose 2 µM
Method: as §1

Bicalutamide = compound: CC(O)(CS(=O)(=O)c1ccc(F)cc1)C(=O)Nc1ccc(C#N)c(C(F)(F)F)c1 [Bicalutamide]; conditions: top dose inferred
Method: as §1

T0901317 = compound: O=S(=O)(c1ccccc1)N(CC(F)(F)F)c1ccc(C(O)(C(F)(F)F)C(F)(F)F)cc1 [T0901317]; conditions: top dose 10.24 µM; top dose inferred
Method: as §1

[1] = top dose 1.024 µM, screen: GDSC drug entry 150
[2] = top dose 10 µM, screen: GDSC drug entry 1502

Cell Line	AUC (Gemcitabine)	IC50 (Gemcitabine)	AUC (KIN001-270)	IC50 (KIN001-270)	AUC (MP470)	IC50 (MP470)	AUC (AUY922)	IC50 (AUY922)	AUC (TW-37)	IC50 (TW-37)	AUC (LFM-A13)	IC50 (LFM-A13)	AUC (Nilotinib)	IC50 (Nilotinib)	AUC (Bicalutamide; [1])	IC50 (Bicalutamide; [1])	AUC (Bicalutamide; [2])	IC50 (Bicalutamide; [2])	AUC (T0901317)	IC50 (T0901317)
SBC-5 (small cell lung carcinoma, adherent)	0.023	< 0.004 µM	0.99	> 20 µM	0.444	0.907 µM	0.592	0.0272 µM	0.436	0.216 µM	0.993	> 16 µM	0.977	> 2 µM	0.992	> 1.02 µM	0.992	> 10 µM	0.987	> 10.2 µM
MG-63 (osteosarcoma, adherent)	0.106	< 0.004 µM	0.982	> 20 µM	0.984	> 20 µM	0.435	0.0103 µM	0.427	0.191 µM	0.971	> 16 µM	0.969	> 2 µM	0.984	> 1.02 µM	–	–	0.983	> 10.2 µM
OE33 (oesophagus, adherent)	0.459	0.0483 µM	0.956	> 20 µM	0.984	> 20 µM	0.627	0.0385 µM	0.638	0.812 µM	0.981	> 16 µM	0.982	> 2 µM	0.978	> 1.02 µM	0.978	> 10 µM	0.98	> 10.2 µM
42-MG-BA (glioma, adherent)	0.537	0.0816 µM	0.969	> 20 µM	0.974	> 20 µM	0.672	0.05 µM	0.552	0.439 µM	0.969	> 16 µM	0.925	> 2 µM	0.985	> 1.02 µM	0.978	> 10 µM	0.972	> 10.2 µM
C-33-A (cervix, adherent)	0.164	0.00601 µM	0.841	14 µM	0.841	14 µM	0.468	0.0131 µM	0.368	0.135 µM	0.896	> 16 µM	0.986	> 2 µM	0.986	> 1.02 µM	0.939	> 10 µM	0.962	> 10.2 µM
SK-MEL-30 (melanoma, adherent)	0.128	< 0.004 µM	0.984	> 20 µM	0.966	> 20 µM	0.571	0.0254 µM	0.254	0.0588 µM	0.975	> 16 µM	0.983	> 2 µM	0.986	> 1.02 µM	0.983	> 10 µM	0.986	> 10.2 µM
Detroit562 (head and neck, adherent)	0.281	0.0158 µM	0.972	> 20 µM	0.93	> 20 µM	0.619	0.0335 µM	0.736	1.42 µM	0.981	> 16 µM	0.972	> 2 µM	0.988	> 1.02 µM	0.986	> 10 µM	0.983	> 10.2 µM
